From the supplement of paper PMC10126150 come the findings set out here.

Values marked as one replicate rest on one cluster of the flow cell; about a third of the high ones do not repeat.

The data set relates to ATP. In words: switch fluorescence ratio, 500 uM ATP over buffer (Cy3 cluster intensity, sum of 5 cycles each) (fold (ratio)); higher = stronger signal-on switching upon ATP binding; sequences stand for … in TCGTCGGCAGCGTCAGATGTGTATAAGAGACAGTTTTTTTTTTTTTTTTTTTTTTTTT…TC. Conditions: aptamer strand: ATP DNA aptamer (quencher-CACCTGGGGGAGTATTGCGGAGGAAGG + anchor), 100 nM annealed; ATP concentration: 500 uM; one replicate. An outline of the steps:
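Per cluster, summed Cy3 intensity from the target cycles was divided by that from the buffer cycles to give the fluorescence ratio, then averaged per switch-domain sequence. Clusters outside 100-1000 RFU were excluded. The Cy3-labelled switching-strand clusters, on a modified Illumina MiSeq flow-cell, were annealed to 100 nM quencher-labelled ATP aptamer and imaged in selection buffer, then after 15 min with 500 uM ATP at 22 °C, for five cycles with NaOH stripping and re-annealing between them.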
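Note: ATP exposure 15 min at 22 °C before imaging.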

As for GCACCGGATT, the switch fluorescence ratio is 1.01. For the sequence CGATAACGAG, the switch fluorescence ratio turned out to be 1.01. The value for AAAGGTCAAT was 0.976. ATACAGTTGG: the switch fluorescence ratio stood at 1.01. For the sequence CACGGAGGGT, the switch fluorescence ratio amounted to 1.11. The value for ATGCTCGCTT was 0.998; that for CATTGGAGTG was 0.969; that for GGGCGCCGA was 0.936.

In the case of TTTGCCAGTG, the switch fluorescence ratio was found to be 1.02. The value for TTATAACCCA was 1.02; that for TAACGAAGGG was 1.02; that for GGCATTCAGA was 0.978.

Regarding TAGTATCTAC, the switch fluorescence ratio stood at 1.04. Take ACTGGAAATC: the switch fluorescence ratio was determined as 1.02. The result for CTACCTATCC reads 1.81. The result for GGTAGTCGTT reads 0.98; that for AGGGTCCGAT, 1.04. The value for GGGGACCGAC was 1.13; that for TCGAGCATC was 2.37; that for TACTCGCCC was 1.59. As for CTTCTGGTTT, the switch fluorescence ratio was found to be 0.953.

On to TTAGGCACCT, for which the switch fluorescence ratio amounted to 1.11. The value for TTGACGTCCA was 1.36; that for TCACCGTGCG was 1.02; that for TATTAAGCAT was 1.01. The value for CTAGCTGCCC was 1.1; that for GTCCGGCATT was 1.03; that for TAAATTCGGG was 0.975. The result for GTGGGCAACC reads 0.972; that for CGCTACGCTC, 1.49; that for CACATACTGA, 1.43. CAGAGCGGAC: the switch fluorescence ratio worked out at 2.24.

As for TGCCAATCTA, the switch fluorescence ratio was found to be 1.

In the case of ACACAGGGGT, the switch fluorescence ratio is 1.96.

Regarding CAGATATATT, the switch fluorescence ratio worked out at 0.998. The value for CGTATCAGAA was 1.02; that for ATCTTCATTA was 0.972; that for AATTGAGTAC was 1.01. As for TCTATTCGT, the switch fluorescence ratio was found to be 0.993. The value for TTCATTGCCC was 1.01.

Turning to ATCGACGCGT, the switch fluorescence ratio amounted to 1.04. Regarding AAGGAGAGAG, the switch fluorescence ratio stood at 0.959. The value for GCACGTGCGG was 0.961; that for CCAGTATAGG was 0.967; that for TAGAAGCTCG was 1.01. The value for CATTTTGCTA was 0.955; that for CTAGGGAGTG was 0.977; that for GCGGAGTTAG was 1.05. The result for CGCATCGTGT reads 0.988; that for ACGTGGAGCG, 0.989. As for TGTAAGTTCG, the switch fluorescence ratio was found to be 1. The result for GAGATTACCC reads 1.03; that for TAGAAGAGTA, 0.983; that for ATGGTAGAGG, 0.96. The value for TGCTGTTGCA was 0.975; that for TTAGTATCCC was 1.04; that for CACAGGTGTG was 1.48. The value for AACCGATATA was 0.985. As for CCCATTTCCT, the switch fluorescence ratio stood at 1.02. For the sequence ATAGTAAGTG, the switch fluorescence ratio is 0.98. For GAGAGGGTGG, the switch fluorescence ratio stood at 1. Turning to GGGCCCGGCC, the switch fluorescence ratio turned out to be 0.979. The result for CTTACACGGC reads 1.07; that for AATGTCGCCT, 1.02.

Consider CAAGTATGTT, for which the switch fluorescence ratio came out at 0.982. The result for CACGGCTTGA reads 0.935; that for TCGCAGTCAG, 1.19. The result for TTCCGCGACG reads 1.24; that for GTCAGGGGTC, 1.06. The result for ACGTTTCTCT reads 1.04; that for TTCTTAGAAG, 1.03; that for TTAAATGCTG, 1.02. As to AATGCCTCCA, the switch fluorescence ratio came out at 1. Regarding CACGGCAACC, the switch fluorescence ratio was 1.77. Take CTGATGCGAA: the switch fluorescence ratio was found to be 1.15.

As to GTGTTTGAGT, the switch fluorescence ratio was 0.956. The value for CGCCAATGGT was 1.25; that for GGTGTGAGGG was 0.94. The result for TGACCTGGGT reads 1.06; that for CGATATTGCT, 0.982; that for ATTAGCCGGT, 0.969.

As to GTATTCAGGC, the switch fluorescence ratio came to 0.939. The result for AATGAGATCC reads 0.971. The value for TACCGCTGTA was 1.14. Consider GAGACCAGGT, for which the switch fluorescence ratio is 1.56. Regarding GGTTGCCGCG, the switch fluorescence ratio is 0.981. The value for ACGCGGTGGC was 1.13; that for ATGACAAGCC was 1.08.

Regarding AAATCCCAGC, the switch fluorescence ratio turned out to be 0.999.

Take TTAAAGCACA: the switch fluorescence ratio came to 1.11. The result for AGGCTGCTAT reads 0.971; that for TGGGAGCGAA, 1.02; that for CAATCATCGT, 1.01. The value for AAAAGCGGCT was 1.11; that for TGGTACAACA was 1.01. The value for AAGGACCCAC was 1.43; that for ATAACAGCCA was 1.03. In the case of GTGGTACCAC, the switch fluorescence ratio came to 1.04. The result for ACTTAGATTC reads 1.02; that for GCTCGCTCGC, 1.3; that for AGAGGCGAAA, 1. The value for ATCAGCTGGA was 1.05.

In the case of CGCTAGTAGG, the switch fluorescence ratio came to 1.01. As to AACTATATAT, the switch fluorescence ratio was determined as 1.07. The value for TGTCGCAGTT was 0.999. The result for CTCGGTTTGT reads 0.945.

With CGTATATTGA, the switch fluorescence ratio came out at 1.01. TTACAGATC: the switch fluorescence ratio came to 1.06.

As to TGAAGAAAGA, the switch fluorescence ratio is 1.02. The result for GCGCTACTTC reads 1.55; that for TATTTTCCCT, 1.05. The result for CTCCGTTGCG reads 1.4; that for ATAAATAGTG, 0.999; that for TAAGCCTTTC, 1.72. The value for CGTCTCGC was 1.1; that for CTAGGTTGCG was 0.975.

As for GCATTATCTT, the switch fluorescence ratio was 1.06.

Consider AGCTGGGCAA, for which the switch fluorescence ratio stood at 1.12. Regarding GGATCGATTT, the switch fluorescence ratio is 1.03. The value for AGGAGAGATA was 0.973.
